According to the supplement of paper PMC11417369:
± gives the standard deviation of the averaged measurements. The list shows a part of the results.

The sequences below were run on PfAP2-LT AP2 domain (GST-tagged) (assay: gcPBM binding intensity (ln(normalized median fluorescence intensity)); higher = stronger DNA binding).
Procedure, shortened: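 Plasmodium falciparum DNA-binding domains carrying a GST tag were expressed in E. coli and applied for 1 h, at about 25 μg on average, to an Agilent 4 × 180k array. The array held primer-extended double-stranded 36-bp intergenic genomic probes together with negative controls, and binding took place in 1× PBS with 1% milk, 0.2 mg/ml BSA, 0.5% salmon testes DNA and 0.03% Triton X-100. An Alexa488 anti-GST antibody detected bound protein, and the array was scanned at 488 nm. Binding intensity is taken as the highest Masliner-normalised natural-log median intensity across replicate spots of either probe orientation.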

“ACGAATTAAATGGATTAATATATATATGTATATTTA [CACACA_negctrl_site1512]” and “TTAAATACTTTTCGAAGTACATTATATATATAATAT [XGTACX_site7530]” are within error of each other in “gcPBM binding intensity (ln)” value: 8.53 ± 0.39 for the first, 8.56 ± 0.4 for the second.

“CGCAACACTATTTGGGTGCTCTTCAAAAAAAAAAAA [GTGCAC_site9598]” and “ATAATGTTTCTTTCAACACACAAAAAATGAACACAT [CACACA_site1552]” are within error of each other in “gcPBM binding intensity (ln)” value: 8.23 ± 0.4 for the first, 8.91 ± 0.47 for the second.

First: AAAAAAGAAAAAAGGACACACATAAATATACTCACG [CACACA_site2904]
Second: CATACATACGGACACACACACATATATATATATATA [CACACA_site5598]
The “gcPBM binding intensity (ln)” value of the first is lower: 9.16 ± 0.48 for the first, 10.3 ± 0.15 for the second.

“TATATAAGCGCATGCACACGCAAAGGTATATAAATA [CACACA_site622]” and “AAAAAAAAAAAATAGACCTCCTAAGCAAAAGAAAAA [GTGCAC_negctrl_site634]” are within error of each other in “gcPBM binding intensity (ln)” value: 9.39 ± 0.4 for the first, 8.62 ± 0.53 for the second.

“AATATAAATAAAAACACACACAATGGTACAGATATA [CACACA_site5930]” and “AATTTAAATTAGAATTGTACTAGAAAAGGAATATAT [XGTACX_site6162]” are within error of each other in “gcPBM binding intensity (ln)” value: 9.4 ± 0.36 for the first, 8.55 ± 0.5 for the second.

“AATTATATAATCTTATAACATAATATAATAACATTT [CACACA_negctrl_site187]” and “ATAATTTTCCATATTTGTACATATTTTTTTCCCTTG [XGTACX_site8146]” are within error of each other in “gcPBM binding intensity (ln)” value: 8.4 ± 0.45 for the first, 8.92 ± 0.59 for the second.

“ATTCTATTATAATATTCACACACTAACGTAAATCAT [CACACA_site2750]” and “TAATGACTGAAAAATTGTACATATGTATATATGTAT [XGTACX_site2415]” are within error of each other in “gcPBM binding intensity (ln)” value: 9.05 ± 0.39 for the first, 8.84 ± 0.41 for the second.

Compared with “TATTTATTTGTTTAAGGTACAGAACAAATTTTTATT [XGTACX_site7414]”, “AAATGTTCTTAAAAATGAATAATATATATATATATA [CACACA_negctrl_site796]” is higher in “gcPBM binding intensity (ln)” value: 8.39 ± 0.47 for the first, 8.89 ± 0.014 for the second.

Going from “CATAAATACATACATACACACATATATATATATATA [CACACA_site2106]” to “ATATTTATTATTATATGTACGTAACATCTTTATAAA [XGTACX_site7016]”, the “gcPBM binding intensity (ln)” value falls from 9.88 ± 0.085 to 8.86 ± 0.49.

“AAATGTTGAAAAATATGTACATATTATATATATTAT [XGTACX_site1165]” and “TAAGAAAGACAAAAAAAATGAAAAGAAAAAAAATGA [CACACA_negctrl_site1469]” are within error of each other in “gcPBM binding intensity (ln)” value: 8.77 ± 0.42 for the first, 8.59 ± 0.49 for the second.

First: AATATAAGCAAATACACACACACATATATATATATA [CACACA_site3805]
Second: ATTTAGAAAAAATATACACACAGCCTAAACATGCAT [CACACA_site4067]
The “gcPBM binding intensity (ln)” value of the first is higher: 10.29 ± 0.035 for the first, 9.07 ± 0.45 for the second.

“TTATCCTATACAAGGGAAAAATAAAATAAAATAAAT [TGCATGCA_negctrl_site272]” and “TAAAAAATATTATATACACACAGTATAAAAAAAAAT [CACACA_site4012]” are within error of each other in “gcPBM binding intensity (ln)” value: 8.66 ± 0.49 for the first, 8.95 ± 0.49 for the second.

ATTGATTATTTTCTAGTGCATAAAATAATTTTTTTT and “ATATACATATTATAATGTACATATTTTAATAACCTT [XGTACX_site7617]” are within error of each other in “gcPBM binding intensity (ln)” value: 8.43 ± 0.42 for the first, 8.69 ± 0.35 for the second.

“AGTGTCATATAAAATTGTACTTTTTTTTTTTTCTTT [XGTACX_site5651]” and “ATAATGAACAATATTATATATAAAATATAATTTATA [GTGCAC_negctrl_site564]” are within error of each other in “gcPBM binding intensity (ln)” value: 8.55 ± 0.6 for the first, 8.51 ± 0.38 for the second.

“ATGTATGTTTGTTATGCACACAAATGCATCTTATTT [CACACA_site8861]” and “GAGAAATGGGGACACACACACATATTATATATATAT [CACACA_site4943]” are within error of each other in “gcPBM binding intensity (ln)” value: 9.44 ± 0.54 for the first, 9.77 ± 0.37 for the second.

“AAGCACAAAAAATACACACACAAAAAATAAAAAAAG [CACACA_site1840]” and “TATATGCATAATAACTGTACACAAATTGGGGTTGAT [XGTACX_site459]” are within error of each other in “gcPBM binding intensity (ln)” value: 9.48 ± 0.44 for the first, 8.98 ± 0.4 for the second.

“ATATAAATATATGTATGTACGCATGTATGTATCTAT [XGTACX_site3290]” and “TTTTAATTTATTTATGCACACATATATAATTACACA [CACACA_site8126]” are within error of each other in “gcPBM binding intensity (ln)” value: 9.21 ± 0.4 for the first, 8.97 ± 0.46 for the second.

Going from “AAAAATAAACAATATATAGTTATATATATATATATA [TGCATGCA_negctrl_site82]” to “ATTATATATATGTGCACACAAAAGATATATATATAT [CACACA_site5205]”, the “gcPBM binding intensity (ln)” value rises from 9.23 ± 0.39 to 9.95 ± 0.26.

“AAATAATTTACTTAATGTACATATATATATATATAT [XGTACX_site8594]” and “ATATTTATTTGTTAGTGTACATACATATATATATAT [XGTACX_site1347]” are within error of each other in “gcPBM binding intensity (ln)” value: 9.41 ± 0.45 for the first, 9.13 ± 0.47 for the second.

“TTTTCTATGCTAAACACACTCATTGTTACAAGTTTT [CACACA_site5531]” and “TATATATATTTTATATGTACGTATGGAACAATATGA [XGTACX_site8167]” are within error of each other in “gcPBM binding intensity (ln)” value: 8.84 ± 0.49 for the first, 8.59 ± 0.38 for the second.

“TTATTTATTTTTTATACACACAATTATCATTTTAAG [CACACA_site22]” and “TTTTCAATTAATAATACACACATGTATTTATTATTA [CACACA_site5774]” are within error of each other in “gcPBM binding intensity (ln)” value: 8.82 ± 0.4 for the first, 8.78 ± 0.43 for the second.

“AATTATATACATAAGTGTACATAATATATAAACATA [XGTACX_site793]” and “TGTTGTAAATTAAAGACATGCACGTGAGAAAATATA [TGCATGCA_site285]” are within error of each other in “gcPBM binding intensity (ln)” value: 8.81 ± 0.45 for the first, 9.4 ± 0.57 for the second.

“TTAATTAGAAATCATACACACATATAAATAAATATA [CACACA_site6225]” and “TTATTCTGACAGAATTGTACTAATGTCTTTAAAAAA [XGTACX_site1256]” are within error of each other in “gcPBM binding intensity (ln)” value: 8.82 ± 0.39 for the first, 8.21 ± 0.3 for the second.

“TGTGCCTATAAATTAACACACAGAAATATATAGAGA [CACACA_site818]” and “TATTTGTTTGTTCGGGTGCTTACATATATTCTTATA [GTGCAC_site9972]” are within error of each other in “gcPBM binding intensity (ln)” value: 9.02 ± 0.36 for the first, 9.06 ± 0.39 for the second.

“TAAGTTTATTGAAATTGTACAAACATAAATGTAAAA [XGTACX_site162]” and “TTATATTTTTTTTTTTCACACACATTTATATTGTAT [CACACA_site9025]” are within error of each other in “gcPBM binding intensity (ln)” value: 8.52 ± 0.49 for the first, 9.3 ± 0.46 for the second.

“TATACTAAGAAGTATTTACACACCAACAAGGCGAAA [CACACA_site8963]” and “TTATTTTCATATAGGTGTACATAAAAATATTCTTAT [XGTACX_site8861]” are within error of each other in “gcPBM binding intensity (ln)” value: 8.87 ± 0.42 for the first, 8.56 ± 0.56 for the second.

“AAATTAAGTATATATTGTACACATAATATGATTGTA [XGTACX_site3083]” and “ATGTTCATTATATGCACACATATATATAAATGTAAT [CACACA_site2908]” are within error of each other in “gcPBM binding intensity (ln)” value: 8.66 ± 0.39 for the first, 9 ± 0.34 for the second.

“TATCATAAAAAATATACACACAAAGGATATATATAT [CACACA_site1571]” and “ATTTTTCTTTTTAATACACACAAAAGTGATACAAAC [CACACA_site3923]” are within error of each other in “gcPBM binding intensity (ln)” value: 9.05 ± 0.29 for the first, 8.8 ± 0.42 for the second.
